Laboratory results published in PubChem BioAssay AID504706 (National Center for Advancing Translational Sciences (NCATS), 2011).
The whole screen tested about 320,000 compounds, of which about 200 (0.062%) were called active. Inconclusive results, whose numbers are uncertain, are shown with a selection of clear calls. Calls follow the shape of the dose curve; as a rule, active = well fitted activation curve with a large enough effect; inconclusive = small, poorly fitted or top-dose-only effect; inactive = no such curve, though single readings can be large or run the other way. Potencies of inconclusive entries are left out as doubtful fits.

Test: qHTS assay for re-activators of p53 using a Luc reporter; also: nearly all actives have a fitted effect of over 45% in size; as to activity change, positive = activation: % of control where 0% means no effect
Details: H1299 p53-A138V BP100-luciferase reporter, luminescence, 24 h; series mostly up to 92.2 µM; activity change, positive = activation: at the top concentration
Procedure, shortened: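 p53-null H1299 cells stably carrying temperature-sensitive p53-A138V and a BP100-luciferase reporter were pinned with compounds (4-point, 1:5 series) and held 24 hrs at 37 deg C. Luminescence was read 10 min after detection reagent.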
Potency is read from the fitted curve at half-maximal effect; tags tell the direction and shape of the fitted curve.

**Q.** Which Potency does the source give for `CC1CCCCN1C(=O)CSc1nnc(-c2ccco2)o1` (stereo not given) here?
**A.** inconclusive [activator, partial curve]

**Q.** With `CC(C)c1ccc2nc(NC(=O)C3CC3)sc2c1` as the compound, how does the Potency read?
**A.** inconclusive [activator, partial curve, poor fit]

**Q.** For `O=C(COc1ccc(Cl)cc1)NN=C1CCCCCCC1`, which “activity change, positive = activation” value is on record?
**A.** inactive: 2.98%

**Q.** Which Potency does the source give for `Cn1c(N)c(C(=O)COC(=O)/C=C/c2ccccc2Cl)c(=O)n(C)c1=O` here?
**A.** inconclusive [activator, partial curve, poor fit]

**Q.** For `O=C(NNc1nc2cc3c(cc2s1)OCO3)c1cccc(F)c1`, which Potency is on record?
**A.** inconclusive [activator, partial curve, poor fit]

**Q.** With `CC(C)OC(=O)c1cc(NC(=S)Nc2ccc([N+](=O)[O-])cc2)cc(C(=O)OC(C)C)c1` as the compound, how does the Potency read?
**A.** inconclusive [activator, single point]

**Q.** Which Potency does the source give for `Cc1cc(C)cc(Nc2ccc(C(=O)O)cc2N)c1` here?
**A.** inconclusive [activator, partial curve, poor fit]

**Q.** For `Cc1ccc2[nH]c3c(=O)n(CCC4=CCCCC4)cnc3c2c1`, which “activity change, positive = activation” value is on record?
**A.** inactive: 6.81%

**Q.** Which Potency does the source give for `CCC(C)(C)C(=O)Nc1ncc(S(=O)(=O)c2ccc([N+](=O)[O-])cc2)s1` here?
**A.** inconclusive [activator, single point]

**Q.** Which “activity change, positive = activation” value does the source give for `COc1ccc(OC)c(NC(=O)Nc2ccc3c(c2)CCC3)c1` here?
**A.** inactive: -1.21%

**Q.** With `O=C(NC1CCN(C(=S)NCc2ccco2)CC1)c1ccc(F)cc1` as the compound, how does the Potency read?
**A.** inconclusive [activator, full curve, poor fit]

**Q.** For `COc1ccc(C2CC(c3ccc(OC)cc3)n3nc(NC(=O)c4cccs4)nc3N2)cc1` (stereo not given), which “activity change, positive = activation” value is on record?
**A.** inactive: 6.68%

**Q.** For `COc1ccc(CCC(=O)NCC2CCCCC2)cc1OC`, which Potency is on record?
**A.** inconclusive [activator, partial curve, poor fit]

**Q.** Which “activity change, positive = activation” value does the source give for `COc1ccc(C2CC(c3ccc(Cl)c(Cl)c3)Nc3nc(N)nn32)cc1` (stereo not given) here?
**A.** inactive: -5.75%

**Q.** For `Cc1sc2ncnc(N/N=C/c3cccc(O)c3)c2c1C`, which Potency is on record?
**A.** inconclusive [activator, full curve, poor fit]

**Q.** Which Potency does the source give for `CC(C)(C)c1csc(NC(=O)c2ccc(Br)o2)n1` here?
**A.** inconclusive [activator, partial curve, poor fit]

**Q.** For `COc1ccc(-c2cn(CCC(=O)O)c(-c3ccncc3)n2)cc1`, which “activity change, positive = activation” value is on record?
**A.** inactive: -2.8%

**Q.** For `COC(=O)C1C(=O)C=C(Nc2ccc(F)cc2)CC1c1ccc(OC)cc1` (stereo not given), which Potency is on record?
**A.** inconclusive [activator, partial curve, poor fit]

**Q.** Which Potency does the source give for `CSCC[C@@H](C(=O)Nc1ccc2c(c1)OCCO2)N1Cc2ccccc2C1=O` here?
**A.** inconclusive [activator, full curve, poor fit]

**Q.** With `O=C(Nc1cc([N+](=O)[O-])ccc1Cl)c1cccnc1` as the compound, how does the Potency read?
**A.** inconclusive [activator, partial curve, poor fit]

**Q.** Which Potency does the source give for `CCN(CC)c1ccc(CNc2ccc(Br)cn2)cc1` here?
**A.** inconclusive [activator, partial curve, poor fit]

**Q.** With `O=C(CCS(=O)(=O)c1ccccc1)Nc1cccc(-c2nc3ccccc3s2)c1` as the compound, how does the Potency read?
**A.** inconclusive [activator, full curve, poor fit]

**Q.** With `Fc1ccc(COc2ccc(C(=S)N3CCCC3)cc2)cc1` as the compound, how does the “activity change, positive = activation” value read?
**A.** inactive: -4.23%

**Q.** With `CC(C)N1CCN(c2ccc(S(=O)(=O)N3CCOCC3)cn2)CC1` as the compound, how does the “activity change, positive = activation” value read?
**A.** inactive: -1.32%

**Q.** For `CCN1CCc2c(sc(NC(=O)c3cc4ccccc4cc3OC)c2C(N)=O)C1`, which Potency is on record?
**A.** inconclusive [activator, partial curve, poor fit]

**Q.** With `Cn1nnnc1SCC(=O)Nc1ccc2c(c1)OCCO2` as the compound, how does the “activity change, positive = activation” value read?
**A.** inactive: 2.17%

**Q.** Which Potency does the source give for `c1ccc2sc(N3CN(CCN4CCOCC4)CN(c4nc5ccccc5s4)C3)nc2c1` here?
**A.** inconclusive [activator, partial curve]

**Q.** Which “activity change, positive = activation” value does the source give for `CC1CC(C)CN(c2oc(Cc3ccccc3)nc2C#N)C1` (stereo not given) here?
**A.** inactive: 21.3%

**Q.** For `COc1cc(OC)cc(C(=O)Nc2ccc(-c3nc4ccccc4o3)cc2)c1`, which “activity change, positive = activation” value is on record?
**A.** inactive: -13.1%

**Q.** Which Potency does the source give for `Cc1ccc(OCC(=O)O/N=C(\N)c2ccncc2)c(C)c1` here?
**A.** inconclusive [activator, full curve, poor fit]

**Q.** For `O=C(CCNC(=O)Cn1ccc2ccccc2c1=O)NCCN1CCc2ccccc2C1`, which Potency is on record?
**A.** inconclusive [activator, single point]

**Q.** With `COc1ccc(NC(=O)NC(=O)c2ccccc2)cc1` as the compound, how does the Potency read?
**A.** inconclusive [activator, partial curve, poor fit]

**Q.** For `COc1ccc2c(c1)CCC/C2=N/OC(=O)c1ccccc1OC`, which “activity change, positive = activation” value is on record?
**A.** inactive: 0.908%

**Q.** Which Potency does the source give for `O=C(Nc1nnc(-c2ccc3c(c2)CCCC3)o1)c1ccccc1Cl` here?
**A.** inconclusive [activator, partial curve, poor fit]

**Q.** Which Potency does the source give for `CCOc1ccc(/C=C/C(=O)OCC(=O)Nc2cccc(S(=O)(=O)N3CCCC3)c2)cc1` here?
**A.** inconclusive [activator, partial curve, poor fit]

**Q.** With `Cc1nc(N)sc1-c1csc(Nc2ccccn2)n1` as the compound, how does the Potency read?
**A.** inconclusive [activator, partial curve, poor fit]

**Q.** For `Cc1cc(OC(C)C(=O)Nc2ccncc2)ccc1Cl` (stereo not given), which “activity change, positive = activation” value is on record?
**A.** inactive: -46.7%

**Q.** Which Potency does the source give for `O/N=C1\CCCCc2ccccc21` here?
**A.** inconclusive [activator, single point]

**Q.** With `CC(C)c1cc(C(=O)Nc2cccnc2)no1` as the compound, how does the Potency read?
**A.** inconclusive [activator, full curve, poor fit]

**Q.** Which Potency does the source give for `Cc1cc(Cl)nc(Cl)c1C(=O)NCCc1ccccc1` here?
**A.** inconclusive [activator, partial curve, poor fit]

**Q.** With `CC(C)N(C)Cc1cn(C)nc1-c1ccc(Oc2ccccc2)cc1` as the compound, how does the Potency read?
**A.** inconclusive [activator, full curve, poor fit]

**Q.** For `CCOc1ccccc1-n1c(SCC(=O)Nc2ccc(CC)cc2)nc2n[nH]c(C)c2c1=N`, which Potency is on record?
**A.** inconclusive [activator, single point]

**Q.** For `Cc1ccc(NC(=O)Nc2ccc(Cl)cn2)cc1`, which “activity change, positive = activation” value is on record?
**A.** inactive: 9.1%

**Q.** With `CC(=O)Nc1ccc(-c2csc(Nc3ccccn3)n2)cc1` as the compound, how does the Potency read?
**A.** inconclusive [activator, partial curve, poor fit]

**Q.** Which Potency does the source give for `CC(C)c1nc(-c2ccc([N+](=O)[O-])cc2)cs1` here?
**A.** inconclusive [activator, partial curve, poor fit]

**Q.** For `Cc1ccccc1OCc1n(CC(=O)OC2CC(C)CCC2C(C)C)c2ccccc2[n+]1C` (stereo not given), which Potency is on record?
**A.** inactive

**Q.** For `Cc1ccccc1-c1noc(-c2ccccc2C(=O)O)n1`, which Potency is on record?
**A.** inconclusive [activator, partial curve, poor fit]

**Q.** Which Potency does the source give for `CC(C)(O)c1cc(=O)sc2nc3ccccc3n12` here?
**A.** inconclusive [activator, partial curve, poor fit]

**Q.** For `COc1ccc(CSc2nnc(Cc3sc(-c4ccccc4)nc3-c3ccccc3)o2)cc1`, which “activity change, positive = activation” value is on record?
**A.** inactive: -0.587%

**Q.** With `COc1ccc(C(=O)OCC(=O)c2c[nH]c3ccccc23)c(OC)c1` as the compound, how does the “activity change, positive = activation” value read?
**A.** inactive: 11.2%

**Q.** Which “activity change, positive = activation” value does the source give for `CCn1c(CSc2nnc3ccccn23)nc2cc(C(=O)O)ccc21` here?
**A.** inactive: 2.35%

**Q.** Which “activity change, positive = activation” value does the source give for `O=C(Cc1csc(Nc2nc(=S)[nH]c3ccccc23)n1)N1CCN(c2cccc(Cl)c2)CC1` here?
**A.** inactive: -0.656%

**Q.** Which Potency does the source give for `C=CCN1C(=O)S/C(=C\c2ccc(N3CCOCC3)cc2C)C1=O` here?
**A.** inconclusive [activator, full curve, poor fit]

**Q.** For `Cc1ccc(C(=O)CN(CCCC(N)=O)C(=O)c2ccncc2)cc1`, which “activity change, positive = activation” value is on record?
**A.** inactive: 4.93%

**Q.** Which “activity change, positive = activation” value does the source give for `N#C/C(C(=O)N1CCOCC1)=c1/s/c(=C\c2ccccn2)c(=O)n1-c1ccccc1` here?
**A.** inactive: 2.53%

**Q.** Which Potency does the source give for `O=C(NCC1CCCO1)c1ccc(NC(=O)c2cccc([N+](=O)[O-])c2)cc1` (stereo not given) here?
**A.** inconclusive [activator, partial curve, poor fit]

**Q.** With `CCCCc1ccc(NC(=O)COCC)cc1` as the compound, how does the Potency read?
**A.** inconclusive [activator, full curve, poor fit]

**Q.** For `O=[N+]([O-])c1ccc(-c2nnc(S)n2-c2ccccc2)cc1`, which Potency is on record?
**A.** inconclusive [activator, full curve, poor fit]

**Q.** Which “activity change, positive = activation” value does the source give for `COc1ccc(CNC(=O)Nc2ccc(OC)cc2)cc1` here?
**A.** inactive: -2.39%

**Q.** For `N#CN/C(=N\S(=O)(=O)c1ccccc1)c1ccccc1`, which Potency is on record?
**A.** inconclusive [activator, single point]

**Q.** With `O=c1cc(-c2ccccc2)nc2nc(-c3ccco3)[nH]n12` as the compound, how does the Potency read?
**A.** inconclusive [activator, single point]

**Q.** Which Potency does the source give for `C=CCn1c(COc2ccc(CC)cc2)nnc1SC/C(O)=C(\C#N)c1nc2ccccc2[nH]1` here?
**A.** inconclusive [activator, single point]

**Q.** For `CC(=O)Nc1nnc(COc2ccc(Cl)cc2)s1`, which “activity change, positive = activation” value is on record?
**A.** inactive: 5.49%

**Q.** Which Potency does the source give for `COc1ccc(OC)c(S(=O)(=O)n2ccnc2C(C)C)c1` here?
**A.** inconclusive [activator, partial curve, poor fit]

**Q.** For `O=C(Nc1ccccc1NC(=O)NC1CCCCC1)NC1CCCCC1`, which Potency is on record?
**A.** inconclusive [activator, single point]

**Q.** For `CCOC(=O)Cc1csc(NC(=O)CSc2ncnc3c2cnn3-c2ccc(OC)cc2)n1`, which “activity change, positive = activation” value is on record?
**A.** inactive: 20.9%

**Q.** For `CCC(CC)C(=O)Nc1ccc(Sc2ccc([N+](=O)[O-])cc2)cc1`, which “activity change, positive = activation” value is on record?
**A.** inactive: -10.8%

**Q.** Which “activity change, positive = activation” value does the source give for `C=CCn1c(O)c(N=NC(=S)Nc2ccccc2C)c2cc(S(=O)(=O)N3CCOCC3)ccc21` here?
**A.** inactive: -9.53%

**Q.** For `NC(N)=Nc1nc(-c2ccccc2)c2cc(Cl)ccc2n1`, which Potency is on record?
**A.** inconclusive [activator, single point]

**Q.** For `Cc1ccccc1NC(=O)CCC(=O)N/N=C/c1cc([N+](=O)[O-])ccc1O`, which Potency is on record?
**A.** inconclusive [activator, single point]
